Assay results as given in US12473350B2, “Recombinant humanized type III collagen microsphere with innovative spatial structure, and design, preparation process and usethereof” (Nanjing Tzone Biotechnology Co., Ltd., priority 2023, dated 2025).
Values joined by “and” are separate entries in the source; they are usually repeats but may differ in a detail not shown here. Identical values can stand only once.

Key:
[1] = Negative staining electron microscopy and 3D reconstruction, size measurement; format: physicochemical; settings: negative staining EM 3D density map
Procedure: The protein sample is diluted with the PBS buffer to a concentration of 0.1 mg/mL, 8 μL of diluted protein sample solution is taken to drip onto a glow-discharge treated (15 mA for 90 seconds, PELCO easiGlow™) copper grid and incubated for 40 seconds. After the excess sample is removed, the obtained copper grid is quickly washed once with 0.75% uranium formate, and further incubated for 40 s by dripping 10 μL of 0.75% uranium formate; and then the excess solution is removed, allowing it to air dried.
The prepared copper grid containing the sample is placed under a Talos 120 electron microscope (Thermo Fisher Scientific, USA) for sample observation at a voltage of 120 kV. Negative staining photographs are captured at a magnification of 92,000× using a Ceta-D camera (Thermo Fisher Scientific, USA), with a pixel size of 1.9 Å/pixel.
The negative staining data are processed using CryoSPARC v4.0.3 version software for two-dimensional (2D) classification, three-dimensional (3D) reconstruction, and 3D classification.
The selected particles are first subjected to 3D reconstruction (ab-initio reconstruction), resulting in five classes of 3D reconstruction models (ab-initio models), as shown in FIG. 9. The finally selected 3D density map of the cyclic collagen corresponds to the fourth class (3,244 particles, approximately 40%). […]

[2] = system: skin at the local injection site; set-up: species or system C57BL/6J female mice; settings: mouse, in vivo
Text: Mouse model: C57BL/6J female mice, weighing 20 g per mouse. The experimental group receives an injection of recombinant humanized type III collagen microsphere with innovative spatial structure obtained from Example 2, while the control group receives an injection of commercialized recombinant humanized type III collagen lyophilized fiber. Dissection time points are set at 1 d, 14 d, 28 d, and 56 d, with 3 animals dissected at each time point. At the same time, a control group and a blank group are set, totaling 36 animals. 3. Experimental Procedure 3.1. Surgical Operation • 1) Weighing: Prior to injection, the weight of the animal is weighed to determine the total injection dosage based on the animal's body weight. Subsequently, the injection volume at each injection site is calculated based on the total injection volume and the number of injection points. • 2) The back of an animal is de-haired, and with the spinal column as a midline, one injection area is set on each of the left and right sides of the back, resulting in two injection sites per animal. The product is implanted intradermally in the back, and the injection volume at each injection site is ½ of the total injection volume. Within 28 days after injection, the experiment animals are observed daily for their activity, feeding and mental state, and weighed once a week. […]

[3] = In-vivo degradation: residual humanized type III collagen at injection site; set-up: species or system C57BL/6J female mice; settings: for AV ± ESD: ESD printed in the row below; for Detected value after subtracting blank / Residual amount: initial injection amount 1 mg, individual animals, listed as Experimental group
Text: Mouse model: C57BL/6J female mice, weighing 20 g per mouse.
The experimental group receives an injection of recombinant humanized type III collagen microsphere with innovative spatial structure obtained from Example 2, while the control group receives an injection of commercialized recombinant humanized type III collagen lyophilized fiber. Dissection time points are set at 1 d, 14 d, 28 d, and 56 d, with 3 animals dissected at each time point. At the same time, a control group and a blank group are set, totaling 36 animals.
3. Experimental Procedure 3.1. Surgical Operation • 1) Weighing: Prior to injection, the weight of the animal is weighed to determine the total injection dosage based on the animal's body weight. Subsequently, the injection volume at each injection site is calculated based on the total injection volume and the number of injection points. • 2) The back of an animal is de-haired, and with the spinal column as a midline, one injection area is set on each of the left and right sides of the back, resulting in two injection sites per animal. The product is implanted intradermally in the back, and the injection volume at each injection site is ½ of the total injection volume.
Specific procedures: For the 28 d and 56 d time points, injections shall be administered 28 days in advance; for the 14 d time points, injections shall be administered 14 days in advance; and for the 1 d time points, injections shall be administered 24 h in advance. At experimental time point of zero, mice of 1 d 14 d, and 28 d time points are killed for detection, while the mouse of 56 d time point is continued to be observed for additional 28 days. The detailed process is illustrated in FIG. 14.
Taking 1 d, 14 d, 28 d, and 56 d after injection as the observation time points, the experimental animals are killed, and the tissue at the injection site is fixed in 10% formalin and then embedded with paraffin for slicing, and the obtained slices are subjected to Hematoxylin-eosin (HE) staining and Sirius Red staining to detect the content of humanized type III collagen.

[4] = system: Human Skin Fibroblasts (HSF) cells; experiment: Cell scratch assay, HSF cell migration; format: cell-based; settings: concentrations of 0.01% and 0.02%, 24 h of culture
Procedure: The principle of scratch test is to draw a line in the cell growth area on a monolayer of adherent cells cultured in vitro in a dish or plate using a micro-pipette tip, suction off the cells in the scratch area, and then continue to culture until the set time (such as 24 hours) to observe whether the peripheral cells have migrated to the central scratch area, in order to determine the growth and migration ability of the cells.
First, a marker is used to draw horizontal lines evenly on the back of a 6-well plate by using a ruler, with a distance between two horizontal lines being approximately 0.5-1 cm, in which each well is crossed by three lines. Approximately 5×10^5 cells are added to each well and cultured in an incubator. At the next day, the cell growth is observed; once the cells cover the bottom of the wells, a micropipette tip is used to scratch on the plate bottom by aid of the ruler, where the micropipette tip is perpendicular as possible to the horizontal lines on the back. Then, the cells are washed three times with PBS to remove the scratched cells, and the culture medium containing 1% FBS is added. The plate is placed in a 37° C., 5% CO2 incubator for cultivation. After 24 hours, the plate is taken photographs to record the convergence degree of the scratches in each well. […]

[5] = system: Human skin fibroblasts (HSF cells); experiment: MTT assay, effect on HSF cell growth; format: cell-based; settings: for RGR (24 h) / RGR (48 h): HSF cells
Procedure: Dimethyl sulfoxide (DMSO) can dissolve formazan in cells, and its light absorption value can be measured at a wavelength of […] using an enzyme-linked immunosorbent assay, which can indirectly reflect the number of live cells. Within a certain range of cell numbers, the amount of MTT crystals formed is proportional to the number of cells.
Logarithmic phase cells are collected and the cell suspension concentration is adjusted. 100 μL of cell suspension is added per well and plated to adjust the density of the cells to be tested to 10,000 cells/well, and the edge wells are filled with sterile PBS. The cells are incubated under 5% CO2 at 37° C. until the cell monolayer spreads over all the bottom of the wells. Then, the drug in a concentration gradient is added; in principle, the drug can be added once the cells have adhered, with five parallel settings. The incubation is performed under 5% CO2 at 37° C. for 24 h or 48 h and the cells are observed under an inverted microscope. 20 μL of MTT solution (5 mg/mL, i.e., 0.5% MTT) is added to each well and the incubation is continued for 4 h. If the drug can react with MTT, the culture medium may be discarded after centrifugation, followed by carefully washing 2-3 times with PBS, and then adding the MTT-containing culture solution. The culture is terminated and the culture solution is carefully suctioned out from each well. 150 μL of Dimethyl Sulfoxide (DMSO) is added to each well and the culture plate is placed on a shaker to shake at a low speed for 10 min to fully dissolve the crystals. The light absorption value of each well is measured at […] using an Enzyme-Linked Immunosorbent Assay (ELISA) reader. Zero wells (culture medium, MTT, DMSO) and negative control wells (cells, drug dissolving medium at the same concentration, culture solution, MTT, DMSO) are set at the same time.

[6] = Day 1, mouse skin injection site
[7] = Day 14, mouse skin injection site
[8] = Day 28, mouse skin injection site
[9] = Day 56, mouse skin injection site

B1: Example 2: recombinant humanized type III collagen microsphere, cyclized 72-amino-acid sequence SEQ NO: 1, expressed in E. coli BL21 (DE3) (protein)
chain: GERGAPGFRGPAGPNGIPGEKGPAGERGAPGPAGPRGERGAPGFRGPAGPNGIPGEKGPAGERGAPGPAGPR
modifications: cyclized
Diameter of annular spherical structure [1]: about 7 nm
Pore size [1]: about 3 nm
Irritant reaction to the skin [2]: no significant irritant reaction to the skin
AV ± ESD ([3]; Day 1, average of residual amount (mg) of 3 animals): 0.904
Detected value after subtracting blank [3, 6]: 0.0901 mg/mL and 0.0902 mg/mL and 0.0911 mg/mL
Residual amount [3, 6]: 0.901 mg and 0.902 mg and 0.911 mg
Residual rate ([3]; Day 1 after injection into mouse skin (reference, relative to Day 1 average)): 100%
AV ± ESD ([3]; Day 14, average of residual amount (mg) of 3 animals): 0.534
Detected value after subtracting blank [3, 7]: 0.0523 mg/mL and 0.0566 mg/mL and 0.0514 mg/mL
Residual amount [3, 7]: 0.523 mg and 0.566 mg and 0.514 mg
Residual rate ([3]; Day 14 after injection into mouse skin, relative to Day 1 average): 58.9%
AV ± ESD ([3]; Day 28, average of residual amount (mg) of 3 animals): 0.217
Detected value after subtracting blank [3, 8]: 0.0213 mg/mL and 0.0224 mg/mL and 0.0216 mg/mL
Residual amount [3, 8]: 0.213 mg and 0.224 mg and 0.216 mg
Residual rate ([3]; Day 28 after injection into mouse skin, relative to Day 1 average): 24.1%
AV ± ESD ([3]; Day 56, average of residual amount (mg) of 3 animals): 0.013
Detected value after subtracting blank [3, 9]: 0.0013 mg/mL and 0.0015 mg/mL and 0.0011 mg/mL
Residual amount [3, 9]: 0.013 mg and 0.015 mg and 0.011 mg
Residual rate ([3]; Day 56 after injection into mouse skin, relative to Day 1 average): 1.44%
In vivo degradation period versus control group ([3]; mouse skin injection site, 1 d to 56 d): significant property of prolonging the degradation period in vivo
Effect on HSF cell migration (scratch convergence) [4]: significant pro-cell migration activity
RGR (24 h) ([5]; 100 μg/ml): 103.90%
RGR (48 h) ([5]; 100 μg/ml): 118.20%
RGR (24 h) ([5]; 200 μg/ml): 105.80%
RGR (48 h) ([5]; 200 μg/ml): 123.40%
RGR (24 h) ([5]; 400 μg/ml): 112.1%
RGR (48 h) ([5]; 400 μg/ml): 139.1%
Effect on HSF cell growth ([5]; concentrations of 0.01% and 0.02%, after 24 h, comparable to commercialized collagen control): growth-promoting effect
